Measured values published in the BET-seq Pho4 binding data (Le et al. 2018).
This is one part of the list. These are noisy estimates, calculated here from bound and input reads.

molecular target: T1, Pho4 (S. cerevisiae) (UniProt P07270); assay: relative binding free energy (BET-seq); higher = weaker binding; settings: reference: library average
T1 sequence: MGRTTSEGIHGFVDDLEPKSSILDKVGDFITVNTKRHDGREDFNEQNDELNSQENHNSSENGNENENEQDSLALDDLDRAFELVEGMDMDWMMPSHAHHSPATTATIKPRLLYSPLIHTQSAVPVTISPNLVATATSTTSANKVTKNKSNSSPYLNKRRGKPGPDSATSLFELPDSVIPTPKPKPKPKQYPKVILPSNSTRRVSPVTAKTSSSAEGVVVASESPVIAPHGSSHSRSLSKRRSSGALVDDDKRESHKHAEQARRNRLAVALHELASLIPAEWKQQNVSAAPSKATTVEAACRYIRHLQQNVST

Relative binding free energy, -0.12 kcal/mol:
TACCGCACGTGGTGGT
ATATGCACGTGCCGGG
ATGCGCACGTGTGGTA

Relative binding free energy, 0.18 kcal/mol:
CCGGTCACGTGTTAGG
TGTCTCACGTGGTCGA

Relative binding free energy, -0.24 kcal/mol:
GTGCGCACGTGGTTGT
TTCTGCACGTGGGTGC
CTGGCCACGTGGTGCG
TTGAGCACGTGGGATG

Relative binding free energy, 0.21 kcal/mol:
GAGTACACGTGTTGGG
GTGGTCACGTGAAGAA
TCTTTCACGTGATTAT

Relative binding free energy, 0.03 kcal/mol:
GCTGTCACGTGTTTGT
TGTTCCACGTGGTGGT
TTTCGCACGTGTGAGA
ATTTGCACGTGGATGA
GGTTGCACGTGTCTAG

Relative binding free energy, 0.5 kcal/mol:
GCTTACACGTGAAGGG

Relative binding free energy, 0.01 kcal/mol:
GTTAGCACGTGTCGAT
GTTTACACGTGCCGGG
TATTACACGTGGGGCG

Relative binding free energy, -0.04 kcal/mol:
TAACGCACGTGATGGT
AGAGTCACGTGGGTCA
GCGGACACGTGGGAGT
GAAATCACGTGGGTAG
TTAGTCACGTGGCGGA
TAAGTCACGTGGTTAT

Relative binding free energy, 0.27 kcal/mol:
TTGTTCACGTGACGTA
TTACTCACGTGTCGTG
GTGTTCACGTGGTTAC
ACTTTCACGTGCGGGT
GGGTACACGTGAGTTG

Relative binding free energy, -0.07 kcal/mol:
GTTCGCACGTGGTTAT
ATTGCCACGTGGAGGG
TGTACCACGTGTGGTA
TAGGACACGTGTTTTA
TTTCGCACGTGCTTGG
GGGTGCACGTGGGCTT

Relative binding free energy, 0.09 kcal/mol:
TGTGTCACGTGTCATC
TCTGTCACGTGTTACT
ACGTGCACGTGAGTAT
ATTAGCACGTGACTTG

Relative binding free energy, 0.08 kcal/mol:
AGTGGCACGTGAGGAT
ATTCTCACGTGGGGAA
GGTCGCACGTGGAAGT
AGGAGCACGTGATTTA

Relative binding free energy, -0.14 kcal/mol:
GGCTCCACGTGGGCGG
ATTATCACGTGGGTCG

Relative binding free energy, 0.02 kcal/mol:
AGATTCACGTGGGCGT
GGTGACACGTGCAGGC
GTCGACACGTGGGTCT
TGTCGCACGTGGAATA
TGCATCACGTGGGGCA
ACTTGCACGTGTTTAG
TCTAACACGTGGTGAG

Relative binding free energy, -0.16 kcal/mol:
TAAGACACGTGGTGTG
TAGGGCACGTGGCTTT

Relative binding free energy, 0.4 kcal/mol:
GGGGTCACGTGACTGC
GGGGTCACGTGAGAAT

Relative binding free energy, 0.05 kcal/mol:
GTCTGCACGTGGGGAC
ACGATCACGTGGAGGG
TGATGCACGTGTATAT
GTTGTCACGTGCATTG

Relative binding free energy, -0.23 kcal/mol:
GAGGGCACGTGGCATG

Relative binding free energy, 0.44 kcal/mol:
GGTTTCACGTGTTCGG

Relative binding free energy, -0.26 kcal/mol:
TCGGCCACGTGGGTGG
TGAGGCACGTGGGTCA
GTGCGCACGTGGGGGA
TTGTGCACGTGGCCTT

Relative binding free energy, -0.1 kcal/mol:
TACGCCACGTGTTGGG
ATGAGCACGTGTACGG
GGTGGCACGTGTTACG
ATGTCCACGTGGTTAG
GATAACACGTGTTATG
TAGGGCACGTGGGTTT
ATGGTCACGTGGGCAT

Relative binding free energy, 0.04 kcal/mol:
GGTGTCACGTGATCAG
GGAGACACGTGTTTAT
TGAGACACGTGCATGT
AATCGCACGTGTTTAT
CGGGTCACGTGCCGTG
AGGGTCACGTGCCATG

Relative binding free energy, 0.25 kcal/mol:
GTATGCACGTGAAGTT
AGGTTCACGTGTCAAG
GTCCTCACGTGTAGGG
TGGTTCACGTGGGATT

Relative binding free energy, 0.1 kcal/mol:
CGTTTCACGTGCGTGA

Relative binding free energy, 0.29 kcal/mol:
GGTCTCACGTGGAAGG
CGGGTCACGTGTGATT
GGTTGCACGTGTACTT
AGGGTCACGTGAGCCG

Relative binding free energy, -0.02 kcal/mol:
AGAGGCACGTGTGGAT
CTTAGCACGTGCGGGT

Relative binding free energy, -0.2 kcal/mol:
TTGCACACGTGGGGTA

Relative binding free energy, -0.21 kcal/mol:
AGTAGCACGTGTCTGG
GGGAGCACGTGTCTTG

Relative binding free energy, 0.41 kcal/mol:
TTATTCACGTGAGATA
GCCTGCACGTGAGGTG

Relative binding free energy, 0.32 kcal/mol:
GAAGTCACGTGAGCGG

Relative binding free energy, 0.33 kcal/mol:
CGGATCACGTGAGGGG
TGTTTCACGTGCGAAG
CAGAGCACGTGAAGGG
TTCTTCACGTGTGGAG

Relative binding free energy, 0.13 kcal/mol:
TATTACACGTGTGTCG
CGGTACACGTGTGGGT
AATGTCACGTGGTGGC

Relative binding free energy, 0.07 kcal/mol:
AGCGTCACGTGAGGGA
GCTGACACGTGTGTAG
TGTCGCACGTGATGTA
CTTTACACGTGGATGG
AGAAACACGTGGGAAG
TATTACACGTGGGTAA

Relative binding free energy, -0.25 kcal/mol:
TCTGGCACGTGGTCTT

Relative binding free energy, 0.17 kcal/mol:
GGTTGCACGTGTGATA
AAGGGCACGTGAGAGG
GAGGGCACGTGAGAGT
GTGGTCACGTGGTGGA
AGGAGCACGTGAGAGG
CGGGACACGTGTAATG

Relative binding free energy, -0.17 kcal/mol:
GTCGGCACGTGGCATG
AATAGCACGTGGAGTA
ACGGGCACGTGGAGTG

Relative binding free energy, -0.05 kcal/mol:
GAACGCACGTGGGATG
GGTGACACGTGCTGAG
TGTGTCACGTGCTGAT
TCTGGCACGTGGCTTT

Relative binding free energy, 0.22 kcal/mol:
TACTTCACGTGGTGTC
AGATTCACGTGATTTT
CGAATCACGTGGTTGT
TGGGTCACGTGTGAGG
TAGTTCACGTGGGCTG
AGGTCCACGTGAAGTT

Relative binding free energy, 0.2 kcal/mol:
AGGGGCACGTGTAGAT
GGTCTCACGTGCATGG
AGTAACACGTGAGGGC

Relative binding free energy, 0.19 kcal/mol:
GTATTCACGTGGGCGG
GTTTCCACGTGTGGAT
GTCGGCACGTGATGGG

Relative binding free energy, 0.28 kcal/mol:
TGATTCACGTGCGTTA
TGTTTCACGTGAGACG
TGGCTCACGTGTCGAG

Relative binding free energy, -0.19 kcal/mol:
TTAAACACGTGGGTGG

Relative binding free energy, 0.23 kcal/mol:
ATGGGCACGTGAAGGT
ATTGACACGTGAGTGT

Relative binding free energy, 0.14 kcal/mol:
TAGTACACGTGAGTGC
TCCTTCACGTGTTGTG
GTGGGCACGTGATGCT
AGGTTCACGTGGGCAC

Relative binding free energy, -0.13 kcal/mol:
AGTGGCACGTGGGAAA
ATATGCACGTGTTTAG
ACGATCACGTGGGTTG

Relative binding free energy, 0.37 kcal/mol:
TCTTTCACGTGATTGA

Relative binding free energy, -0.08 kcal/mol:
AGTGACACGTGTGCTA
TTGGACACGTGCGGTA
GTGAGCACGTGGTTTG
ATAGGCACGTGATAGG
AGTGACACGTGGAGGA

Relative binding free energy, 0.31 kcal/mol:
TGTCTCACGTGTTGGT
AGACTCACGTGTTGGA
TTATTCACGTGATGTC

Relative binding free energy, 0 kcal/mol:
TTATGCACGTGGTAAT
TGAGTCACGTGCGGTG
TGCGGCACGTGGAAGA
GGTTCCACGTGTTGTG
AGTATCACGTGGTTTG
GGAGTCACGTGGCATG
CAGGGCACGTGGGATT
TAGAACACGTGGTTAT
TTACGCACGTGATTTA

Relative binding free energy, 0.26 kcal/mol:
GCTAGCACGTGAGGAT
TAGGTCACGTGTGGGT
GGGTTCACGTGTCAAG
ATTTTCACGTGGTCGT

Relative binding free energy, -0.28 kcal/mol:
ATTGCCACGTGGAGGT

Relative binding free energy, 0.16 kcal/mol:
GGTGACACGTGCAGTT
GTGGTCACGTGTCGCA
GATTGCACGTGTGGTA
TTCTACACGTGCGGGT

Relative binding free energy, 0.12 kcal/mol:
GGACGCACGTGATGTT
TTGTCCACGTGGAGAG
TTTATCACGTGCAGGG
AAGGGCACGTGAAAGG
TAGAGCACGTGAGATG
GTGGTCACGTGTTGCG

Relative binding free energy, 0.3 kcal/mol:
GATGACACGTGATTTG
TTTCTCACGTGATTTA
GATGTCACGTGAATGG
AGTTACACGTGAGGTG

Relative binding free energy, -0.06 kcal/mol:
GGTAGCACGTGTGTGA
ATAGACACGTGTTGAT
AGTGGCACGTGTTCAT

Relative binding free energy, -0.03 kcal/mol:
TCAGGCACGTGTATGT
ATAGTCACGTGGGTTT
ACGGTCACGTGGGTGC
TAATGCACGTGGTTCA
TGCGACACGTGTAGGG
AGTCGCACGTGGTGAG
AGGAACACGTGTTTGT

Relative binding free energy, 0.15 kcal/mol:
GGTTACACGTGGATGG
AAGCTCACGTGGGGAT
TTTTCCACGTGTTTAA
ATCATCACGTGTTTGG

Relative binding free energy, -0.01 kcal/mol:
TATATCACGTGTGCAG
TGTGCCACGTGAGTAG
TGTGGCACGTGTATTG
TGGGTCACGTGGGCAG
TTGCTCACGTGGGAGT
TTAGTCACGTGGGAAA

Relative binding free energy, -0.15 kcal/mol:
TGTGCCACGTGGATTG
AGAGGCACGTGTTTGT
TTGGGCACGTGTCGTC
GTTAGCACGTGGTGCT
CGGGGCACGTGTTGGA

Relative binding free energy, -0.09 kcal/mol:
TTGGGCACGTGGGTAG
TGGTGCACGTGTACGT
ATTTGCACGTGGAGAG
ATAAGCACGTGTTTAG
CTAGGCACGTGTAGGG

Relative binding free energy, 0.39 kcal/mol:
CGTTTCACGTGAGTAG
TCTTTCACGTGAGGCG

Relative binding free energy, 0.24 kcal/mol:
CTGGGCACGTGAAAGG
AATAGCACGTGGAACG
TTCTTCACGTGATGAG
GAATTCACGTGGGCTT
TTGGTCACGTGACTTG

Relative binding free energy, 0.34 kcal/mol:
CGTTACACGTGAAGGG

Relative binding free energy, 0.06 kcal/mol:
CGGGTCACGTGGATAA
AGTAACACGTGTTATG
CATGGCACGTGTTCTT
TGTGTCACGTGCGGAC
